Laboratory results from the supplement of paper PMC12217912.
This is one part of the list. Sequences were assembled here from the parent chain. Inactive controls read about 0.05.

B1: TEV protease; numbered along this chain (parent)
chain: MGESLFKGPRDYNPISSSICHLTNESDGHTTSLYGIGFGPFIITNKHLFRRNNGTLVVQSLHGVFKVKDTTTLQQHLVDGRDMIIIRMPKDFPPFPQKLKFREPQREERICLVTTNFQTKSMSSMVSDTSCTFPSGDGIFWKHWIQTKDGQCGSPLVSTRDGFIVGIHSASNFTNTNNYFTSVPKNFMELLTNQEAQQWVSGWRLNADSVLWGGHKVFMVKPEEPFQPVKEATQL

Variants of: B1
Experiment: raw area under fraction-flipped curve 0-4 h after induction (AUC4h, not background-subtracted), DNA-recorder readout of cleavage of the substrate (dimensionless); higher = more cleavage of the substrate by the protease variant
Conditions: temperature: 34 °C; time window: 0-4 h after rhamnose induction
Method: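 In vivo DNA recorder in E. coli TOP10(DE3) ΔrhaA at 34 °C. Each TEVp single-site mutant (parent TEVp 0) is paired with a single-site variant of the 7-mer TEVs (canonical ENLYFQ|S). The substrate sits between flexible linkers in a Bxb1-sfGFP-TEVs-SsrA fusion, so cleavage stabilises Bxb1 and speeds flipping of a recombination array, read by NGS. The value is the raw area under the fraction-flipped curve over 0-4 h after rhamnose induction (AUC4h), with ≥20 reads per time point. It is not background-subtracted; inactive controls average about 0.047.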
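Note: Bxb1 expression induced with 0.2% (w/v) L-rhamnose at OD600 near 0.5, cultures sampled hourly, flipped fraction per protease–substrate barcode pair counted by paired-end Illumina sequencing.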

Row | Variant | area with substrate ENLYFQA | area with substrate ENLYFQC | area with substrate ENLYFQF | area with substrate ENLYFQG | area with substrate ENLYFQI | area with substrate ENLYFQK | area with substrate ENLYFQM | area with substrate ENLYFQN | area with substrate ENLYFQP | area with substrate ENLYFQR | area with substrate ENLYFQS | area with substrate ENLYFQT | area with substrate ENLYFQW | area with substrate ENLYFQY | area with substrate ENLYFQD | area with substrate ENLYFQH | area with substrate ENLYFQL | area with substrate ENLYFQQ | area with substrate ENLYFQV | area with substrate ENLYFQE
1 | MGESLFKGPRDYNPISSSICHLTNESDGHTTSLYGIGFGPFIITNKHLFRRNNGTLVVQSLHGVFKVKDTTTLQQHLVDGRDMIIIRMPKDFPPFPQKLKFREPQREERICLVTTNFQTKSMSSMVSDTSCTFPSGDGIFWKHWIQTKDGQCGSPLVSTRDGFIVGIHSASNFTNTNNYFTSVPKNFMELLTNQEAQQWVSGWRLNADSVLWGAHKVFMVKPEEPFQPVKEATQL [G214A] | 0.0589 | 0.112 | 0.086 | 0.0861 | 0.064 | 0.0656 | 0.0647 | 0.0642 | 0.0605 | 0.0705 | 0.0932 | 0.0602 | 0.0513 | 0.0469 |  |  |  |  |  | 
2 | MGESLFKGPRDYNPISSSICHLTNESDGHTTSLYGIEFGPFIITNKHLFRRNNGTLVVQSLHGVFKVKDTTTLQQHLVDGRDMIIIRMPKDFPPFPQKLKFREPQREERICLVTTNFQTKSMSSMVSDTSCTFPSGDGIFWKHWIQTKDGQCGSPLVSTRDGFIVGIHSASNFTNTNNYFTSVPKNFMELLTNQEAQQWVSGWRLNADSVLWGGHKVFMVKPEEPFQPVKEATQL [G37E] | 0.0445 | 0.0395 | 0.043 | 0.0742 | 0.0287 | 0.0437 | 0.0476 |  | 0.0898 | 0.0478 | 0.0546 | 0.0444 |  |  | 0.0516 | 0.0378 | 0.0329 | 0.0662 | 0.0429 | 
3 | MGESLFKGPRDYNPISSSICHLTNESDGHKTSLYGIGFGPFIITNKHLFRRNNGTLVVQSLHGVFKVKDTTTLQQHLVDGRDMIIIRMPKDFPPFPQKLKFREPQREERICLVTTNFQTKSMSSMVSDTSCTFPSGDGIFWKHWIQTKDGQCGSPLVSTRDGFIVGIHSASNFTNTNNYFTSVPKNFMELLTNQEAQQWVSGWRLNADSVLWGGHKVFMVKPEEPFQPVKEATQL [T30K] | 0.0913 | 0.111 | 0.0834 | 0.101 | 0.0618 | 0.0584 | 0.0761 | 0.0842 | 0.0402 | 0.0557 | 0.0963 | 0.0658 | 0.0644 | 0.096 |  | 0.0615 | 0.0494 |  |  | 0.042
4 | MGESLFKGPRDYNPISSSICHLTNESDGHTTSLYGIGFGPFIITNKHLFRRNNGTLVVQSLHGVFKVKDTTTLQQHLVDGRDMIIIRMPKDFPPFPQKLKFREPQREERICLVTTNFQTKSMSSMVSDTSCTFPSGDGIFWKKWIQTKDGQCGSPLVSTRDGFIVGIHSASNFTNTNNYFTSVPKNFMELLTNQEAQQWVSGWRLNADSVLWGGHKVFMVKPEEPFQPVKEATQL [H143K] | 0.0482 | 0.0507 |  | 0.0581 |  | 0.0565 | 0.0695 | 0.055 | 0.0548 |  | 0.0576 | 0.0651 | 0.0523 | 0.049 |  | 0.0485 | 0.05 | 0.0495 | 0.0535 | 0.0723
5 | MGESLFKGPRDYNPISSSICHLTNESDGHTTSLYGIGFGPFIITNKHLFRRNNGTLVVQSLHGVFKVKDTTTLQQHLVDGRDMIIIRMPLDFPPFPQKLKFREPQREERICLVTTNFQTKSMSSMVSDTSCTFPSGDGIFWKHWIQTKDGQCGSPLVSTRDGFIVGIHSASNFTNTNNYFTSVPKNFMELLTNQEAQQWVSGWRLNADSVLWGGHKVFMVKPEEPFQPVKEATQL [K90L] | 0.0931 | 0.12 | 0.0926 | 0.0981 | 0.0635 | 0.0384 | 0.0968 | 0.0743 | 0.0709 | 0.0561 | 0.109 | 0.0578 | 0.0461 | 0.0816 | 0.071 |  | 0.0736 | 0.0769 | 0.065 | 
6 | MGESLFKGPRDYNPISSSICHLTNESDGHTTSLYGIGFGPFIITNKHLFRRNNGTLVVQSLHGVFKVKDTTTLQQHLVDGRDMIIIRMPKDFPPFPQKLKFREPQREERICLVTTNFQTKSMSSMVSDTSCTFPSGDGIFWKHWIQTKDGQCGSPLVSTRDGFIVPIHSASNFTNTNNYFTSVPKNFMELLTNQEAQQWVSGWRLNADSVLWGGHKVFMVKPEEPFQPVKEATQL [G166P] | 0.0405 | 0.0462 |  |  | 0.0547 | 0.0503 |  | 0.0277 | 0.0216 | 0.0552 | 0.0471 | 0.0367 | 0.0459 | 0.0367 | 0.0406 |  | 0.0552 | 0.0434 | 0.0454 | 0.0656
7 | MGESLFKGPRDYNPISSSICHLTNESDGHTTSLYGIGFGPFIITNKHLFRRNNGTLVVQSLHGVFKVKDTTTLQQHLVDGRDMIIIRMPKDFPPFPQKLKFREPQREERIILVTTNFQTKSMSSMVSDTSCTFPSGDGIFWKHWIQTKDGQCGSPLVSTRDGFIVGIHSASNFTNTNNYFTSVPKNFMELLTNQEAQQWVSGWRLNADSVLWGGHKVFMVKPEEPFQPVKEATQL [C111I] | 0.0964 |  |  | 0.109 | 0.0434 | 0.054 | 0.0567 | 0.0723 |  | 0.0628 | 0.1 | 0.0652 |  |  | 0.0362 | 0.0722 | 0.0656 |  |  | 
8 | MGESLFKGPRDYNPISSSICHLTNESDGHTTSLYGIGFGPFIITNKHLFRRNNGTLVVQSLHGVFKVKDTTTLQQHLVDGRDMIIIRMPKDFPPFPQKLKFREPQREERICLVTTNFQTKSMSSMVSDTSCTFPSGDGIFWKWWIQTKDGQCGSPLVSTRDGFIVGIHSASNFTNTNNYFTSVPKNFMELLTNQEAQQWVSGWRLNADSVLWGGHKVFMVKPEEPFQPVKEATQL [H143W] | 0.0604 | 0.0642 | 0.0567 |  |  | 0.057 | 0.0598 | 0.0722 | 0.0477 | 0.0562 | 0.0593 | 0.0516 | 0.066 | 0.0585 | 0.0624 | 0.0632 |  |  | 0.054 | 
9 | MGESLFKGPRDYNPISSSICHLTNESTGHTTSLYGIGFGPFIITNKHLFRRNNGTLVVQSLHGVFKVKDTTTLQQHLVDGRDMIIIRMPKDFPPFPQKLKFREPQREERICLVTTNFQTKSMSSMVSDTSCTFPSGDGIFWKHWIQTKDGQCGSPLVSTRDGFIVGIHSASNFTNTNNYFTSVPKNFMELLTNQEAQQWVSGWRLNADSVLWGGHKVFMVKPEEPFQPVKEATQL [D27T] | 0.0557 |  |  |  | 0.0508 | 0.0598 |  |  |  |  | 0.0852 | 0.0663 | 0.0668 |  |  | 0.0754 | 0.0637 |  |  | 
